Values joined by “and” are separate entries in the source; they are usually repeats but may differ in a detail not shown here. Identical values can stand only once. The campaign covered roughly 420,000 compounds. About 64,000 (15%) were called active. The inconclusive results got no clear call from the source; some entries with a clear call stand among them for comparison. Calls follow the shape of the dose curve; as a rule, active = well fitted inhibition curve with a large enough effect; inconclusive = small, poorly fitted or top-dose-only effect; inactive = flat fitted curve, though single readings scatter. Potencies of inconclusive entries are left out as doubtful fits.
Experiment: qHTS for Inhibitors of human tyrosyl-DNA phosphodiesterase 1 (TDP1): qHTS in cells in absence of CPT; also: nearly all actives have a fitted effect of over 55% in size
Details: DT40 Tdp1-/- hTDP1 cells, no CPT, ATP luminescence, 48 h; activity change, negative = growth inhibition: at 46.2 µM (top of the series) unless noted
How it was run: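 A cellular qHTS used chicken DT40 cells lacking endogenous Tdp1 but carrying stably transfected human TDP1. Compounds were applied without camptothecin, and cell growth kinetics were judged by ATP-dependent luminescence after ≥48 hr.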
% is scaled to controls: 0 for no effect and ±100 for the full control effect; potency is read from the fitted curve at half-maximal effect; tags tell the direction and shape of the fitted curve.

Structure (SMILES) | Potency | activity change, negative = growth inhibition
CCc1nnc(NC(=O)c2n[nH]c(=O)c3ccccc23)s1 | inconclusive [inhibitor, single point] | –
Cc1ccc(N2CCN(C(=O)NCc3noc4ccccc34)CC2C)cc1 (stereo not given) | inconclusive [inhibitor, single point] | –
Cc1cc(NC(=O)CSc2ccccn2)cc(NC(=O)CSc2ccccn2)c1 | inconclusive [inhibitor, single point] | –
Cc1c(C(=O)NNC(=O)c2ccccc2O)oc2ccc(Br)cc12 | inconclusive [inhibitor, single point] | –
COc1cc(OC)c(OC)cc1CNCCSc1nnnn1C | – | inactive: -1.98%
O=C(CCCN1CCOCC1)c1ccc2c(c1)OCCO2 | – | inactive: -11.2%
Cc1ccc(C2C3=C(CC(C)(C)CC3=O)Nc3onc(C)c32)cc1 (stereo not given) | inconclusive [inhibitor, single point] | –
CC(=O)Nc1ccc(-c2ccnc3c2CC(C(=O)Nc2ccc4c(c2)OCO4)O3)cc1 (stereo not given) | active: 8.2 µM | –
CCOC(=O)CCc1c(C)c2ccc(OCC(=O)OC(C)C)cc2oc1=O | – | inactive: -0.424%
COc1ccc(-c2cc(C(=O)OCC(=O)Nc3ccc4c(c3)OCO4)c3ccccc3n2)cc1 | active: 20.6 µM | –
O=C(NCCC1=CCCCC1)C1CCN(S(=O)(=O)c2cccc3cccnc23)CC1 | – | inconclusive: -31.4% [inhibitor]
COc1cccc(C(=O)CSc2nnc(-c3ccco3)n2CC2CCCO2)c1 (stereo not given) | inconclusive [inhibitor, single point] | –
CCC(=O)Nc1ccc2c(c1)nc(CCN1CCN(C)CC1)n2C | – | inactive: 1.99%
O=C(NCc1ccccc1)c1ccc(CS(=O)(=O)Cc2ccc(F)cc2)o1 | inconclusive [inhibitor, single point] | –
O=C(CCN1CCN(Cc2ccccc2)CC1)Nc1cccc(Br)c1 | active: 16.4 µM | –
C=C(C)c1cccc(C(C)(C)NC(=O)Nc2ccc(C)cn2)c1 | active: 18.4 µM | –
CCOc1ccc(S(=O)(=O)N(CC(=O)NC2CCCCC2C)Cc2ccco2)cc1 (stereo not given) | active: 25.9 µM | –
COc1ccc(S(=O)(=O)N(C)C[C@H]2Oc3ncc(-c4ccncc4)cc3C(=O)N([C@@H](C)CO)C[C@@H]2C)cc1 | inconclusive [inhibitor, single point] | –
C/C(=N\NC(=S)NCCc1ccccc1)c1cccs1 | active: 5.17 µM | –
NC(=O)c1ccsc1NC(=O)COC(=O)c1ccc([N+](=O)[O-])o1 | – | inactive: -9.48%
COc1ccc(C2CC(C)(c3ccc(OC)cc3)Nc3ccccc3N2)cc1 (stereo not given) | active: 14.6 µM | –
O=C(Nc1ccc(F)cc1)C1CCCN(c2cnccn2)C1 (stereo not given) | inconclusive [inhibitor, single point] | –
COc1ccc(Cl)cc1S(=O)(=O)N1CCN(Cc2cccc(F)c2)CC1 | inconclusive [inhibitor, single point] | –
CN=c1scc(-c2ccccc2F)n1/N=C/c1ccc(O)c(O)c1O | active: 11.6 µM | –

Structure (SMILES) | Potency | activity change, negative = growth inhibition
CCCOc1ccc(C(=O)N(Cc2cccs2)c2ccc(C)cc2)cc1 | – | inactive: -24.8%
C=CCNC(=O)CSc1nc2scc(-c3ccco3)c2c(=O)n1CC=C | inconclusive [inhibitor, single point] | –
COc1ccc(C2C(Oc3ccccc3)C(=O)N2c2cc(C)ccc2C)cc1OC (stereo not given) | – | inactive: -3.89%
COC(=O)[C@H]1[C@H]2C[C@@H]3c4[nH]c5ccccc5c4CCN3C[C@H]2C[C@@H](OC(=O)c2cc(OC)c(OC)c(OC)c2)[C@@H]1OC | active: 1.19 µM and active: 15 µM | –
COc1cccc(NC(=O)c2sc(Cl)nc2C)c1 | inconclusive [inhibitor, partial curve, poor fit] | –
O=C(Nc1ccc(Cl)cc1)OCc1ccccn1 | – | inconclusive: -32.8% [inhibitor]
Cc1ccc(CS(=O)(=O)c2cn(CC(=O)Nc3ccon3)c3ccccc23)cc1 | inconclusive [inhibitor, single point] | –
O=C(COC(=O)/C=C/c1ccccc1Cl)NC1CCCC1 | – | inactive: 5.46%
O=C(NC(CO)(CO)CO)[C@@H]1CCCN1S(=O)(=O)c1cccc2cccnc12 | – | inactive: -2.48%
Cc1ccccc1-c1nc(C(N)=O)c2c(n1)n(-c1ccc3c(c1)OCO3)c(=O)n2C | inconclusive [inhibitor, single point] | –
Cc1cc2nc(-c3ccc(Cl)cc3)cc(C(F)(F)F)n2n1 | – | inactive: -24.2%
COc1ccc(C(=O)C2CCCN(Cc3ccc(C#CCCO)cc3)C2)cc1F (stereo not given) | inconclusive [inhibitor, single point] | –
COc1ccc(C(=O)OCC(=O)NC2CCCCCC2)c(OC)c1 | inconclusive [inhibitor, single point] | –
Oc1ccc([C@@H]2CNCCc3c2cc(O)c(O)c3Cl)cc1 | active: 29.9 µM | –
CCc1ccc(C2CC(c3ccc(Cl)cc3)n3nc(N)nc3N2)cc1 (stereo not given) | inconclusive [inhibitor, partial curve] | –
CCn1nc(NC(=O)c2ccncc2)c2cc3ccccc3nc21 | – | inconclusive: -32.4% [inhibitor]
Cc1ccc2nc(SCC(=O)N3CCOCC3)[nH]c2c1 | – | inactive: -5.59%
CCN(Cc1ccncc1)Cc1ccc2c(c1)CN(C(=O)c1cccc(-n3nc(C)cc3C)c1)CCO2 | inconclusive [inhibitor, single point] | –
O=C(NC(=O)N1CCN(c2ccc([N+](=O)[O-])cn2)CC1)c1c(Cl)cccc1Cl | inconclusive [inhibitor, partial curve] | –
C=CCNC(=O)/C(C#N)=C/c1c(C)nn(-c2ccc(Cl)cc2)c1Cl | active: 23.1 µM | –
Cc1c(/C=C/C(=O)c2cccs2)cnn1C | inconclusive [inhibitor, single point] | –
CN(C)S(=O)(=O)c1ccc2c(c1)N(CC(=O)NCc1cccc(Br)c1)C(=O)CS2 | inconclusive [inhibitor, single point] | –
Nc1c(Cl)ncnc1N/N=C/c1ccncc1 | – | inactive: 4.57%
CCCCc1ccc(S(=O)(=O)NC(=O)C2(C)CCN2C(=O)C/C=C/c2ccccc2)cc1 (stereo not given) | inconclusive [inhibitor, single point] | –

Structure (SMILES) | Potency | activity change, negative = growth inhibition
Cc1ccc(S(=O)(=O)N2CCCC2C(=O)NCc2ccc3c(c2)OCO3)cc1 (stereo not given) | inconclusive [inhibitor, single point] | –
CN(C)CCN=c1cc(-c2ccccc2)oc2ccc(Cl)cc12 | inconclusive [inhibitor, single point] | –
CCOc1ccc(NC(=O)COC(=O)CNC(=O)c2ccc(-c3ccccc3)cc2)cc1 | inconclusive [inhibitor, single point] | –
O=C(NCc1ccco1)C1CCN(C(=O)N2CCOc3ccc(Cl)cc32)CC1 | inconclusive [inhibitor, single point] | –
CCCc1nc(SCC(=O)c2ccccc2)c2c(=O)n(C)c(=O)n(C)c2n1 | inconclusive [inhibitor, single point] | –
O=c1cc2nc(-c3cccs3)nc(SCCOc3ccc(Cl)cc3)n2[nH]1 | inconclusive [inhibitor, single point] | –
O=C1CC(c2nnc(Cc3ccc(Cl)cc3)o2)CN1c1ccccc1 (stereo not given) | inconclusive [inhibitor, single point] | –
O=C(O)c1cccc(Nc2nc(Nc3ccccc3)nc(N3CCCC3)n2)c1 | inconclusive [inhibitor, single point] | –
COc1ccccc1-c1nnc2n(CCc3ccccc3)c(=O)c3ccccc3n12 | inconclusive [inhibitor, single point] | –
CCOc1ccc(Cl)cc1/C=N/NC(=O)c1ccccc1 | – | inactive: -25.9%
Cc1ccc(S(=O)(=O)C2(C(=O)Nc3ccc(Br)cc3)CC2)cc1 | inconclusive [inhibitor, single point] | –
Cc1ccc2c(c1)c1c(n2CC(O)Cn2c(C)nc3ccccc32)CCCC1 (stereo not given) | inconclusive [inhibitor, single point] | –
COc1cccc(CNC(=O)CSCc2cnn(-c3ccccc3)c2-n2cccc2)c1 | inconclusive [inhibitor, partial curve] | –
CCOc1cccc2sc(N(CCN(CC)CC)C(=O)c3cccc([N+](=O)[O-])c3)nc12 | inconclusive [inhibitor, single point] | –
COC(=O)C1=C(C)OC(N)=C(C#N)C1c1cc(OC)c(OCC(N)=O)cc1Cl (stereo not given) | inconclusive [inhibitor, single point] | –
Cc1ccc(-c2nnc(NC(=O)c3ccc4c(c3)OCCO4)o2)c(C)c1 | inconclusive [inhibitor, single point] | –
N#Cc1nc(COc2ccccc2)oc1N1CCC(Cc2ccccc2)CC1 | inconclusive [inhibitor, single point] | –
CC(C)c1ccc(NC(=O)CSc2nc(=O)n(CCCN3CCOCC3)c3c2CCCC3)cc1 | inconclusive [inhibitor, partial curve, poor fit] | –
O=C(C[n+]1cc(-c2ccccc2)n2c1CCC2)N1c2ccccc2Sc2ccccc21 | active: 2.59 µM | –
CN(c1ccccc1)S(=O)(=O)c1ccc(C(=O)N2CCCC2)cc1 | – | inactive: -28.7%
O=C(O)CSc1nc2c(cnn2-c2ccccc2)c(=O)n1-c1ccc(Br)cc1 | – | inactive: -18%
Cc1ccc(C)c(Cn2c(=O)n(Cc3ccc(C(=O)NC4CCN(Cc5ccccc5)CC4)cc3)c(=O)c3ccccc32)c1 | – | inactive: -18.4%
